Test results as given in ChEMBL document CHEMBL4888484, “Replenishing the malaria drug discovery pipeline: Screening and hit evaluation of the MMV Hit Generation Library 1 (HGL1) against asexual blood stage Plasmodium falciparum ,using a nano luciferase reporter read-out” (2022).
The campaign covered roughly 150,000 compounds. About 540 (0.36%) showed an effect of 50% or more. The list shows a part of the results.

test system: Plasmodium falciparum; assay: Primary screen in NF54 nanoGlo assay, in single point, at 2uM, 72h; a lower Z score goes with more inhibition; type: functional, Erythrocyte; conditions: timepoint 72 hour

SMILES	% Inhibition	Z score
CCn1ncc(-c2cc(C(F)F)nc(NC[C@H](C)Cn3ccc(C)n3)n2)c1C	2%	-0.32
CCOC(=O)c1cccnc1-c1cccc(C(=O)N2CCNC(=O)CC2)c1	-9%	1.82
CC(C)(C)c1noc(CNC(=O)[C@@H]2CC[C@H](C(=O)O)C2)n1	-4%	0.64
CCc1nnc(N2CCC(OCc3cccnc3)CC2)o1	-2%	0.34
CCn1c(CN2CCC[C@@H]2C(=O)O)nc2cc(F)ccc21	1%	-0.21
O=C(N[C@@H](c1ccsc1)c1cccs1)c1cccc2ccccc12	-9%	1.59
CCc1nnc(CNC(=O)Nc2ccc3c(c2)C(=O)C[C@](C)(CC)O3)o1	-8%	1.55
CCC(CC)c1nc(C#N)c(N2CCN(c3cccc(Cl)c3)CC2)o1	-8%	1.65
CN(CC1(CO)CC1)C(=O)c1cnn2cccc(Br)c12	0%	0.07
O=C(Nc1ccccn1)c1cc2n(n1)CCCO2	-20%	3.07
CC(C)[C@@H]1C[C@H]1CNC(=O)NCC1C(C)(C)C1(F)F (some centres undefined)	-9%	1.74
Cc1cc(NC(=O)C(=O)NC[C@H](C)O)no1	6%	-0.8
O=C(N[C@H]1CCc2ccccc21)c1cn[nH]c1C(F)(F)F	4%	-0.47
O=C(NCCCn1cccn1)c1ccc2[nH]c3c(c2c1)CN(C(=O)C1CCC1)CC3	-3%	0.48
FC(F)(F)c1cc(CNC2CCCCC2)no1	11%	-1.43
CCC1(S(=O)(=O)NC(=O)C2CCCC(OC)C2)CC1 (centres undefined)	-14%	1.39
O=C(NC[C@@H](O)Cc1ccccc1F)c1cc(Br)c2nccn2c1	-2%	0.33
O=C(Cn1nc2c(N3CCCCCC3)nccn2c1=O)NCCC1=CCCCC1	-9%	0.84
CCNC(=O)[C@@H]1C[C@H](N)CN1C(=O)c1scc2c1CCCC2	-1%	0.18
CCn1ccc(C(=O)Nc2cc(-c3cc4ccc(OC)cc4n3CC)n[nH]2)n1	7%	-0.74
Cn1nc(C(=O)N2CCC[C@@]3(CCC(=O)N(CCc4c[nH]cn4)C3)C2)ccc1=O	-5%	0.74

SMILES	% Inhibition	Z score
COc1cc2c(cc1OC)CN(C(=O)C1(c3ccc(C)cc3)CCOCC1)CC2	6%	-0.65
Cc1nc(C(=O)N(Cc2cc(F)ccc2F)C2CCCC2)c(=O)[nH]c1C	-2%	0.24
Clc1cccc(CNCc2cccnc2-n2cccn2)c1	19%	-2.24
CC(C)(C)n1c(=O)c2ccc(Cl)cc2n1CC(=O)NCc1ccc(F)cc1	1%	-0.22
CC(C)CN1CCO[C@@H](COC(=O)c2cn3ccnc3s2)C1	-10%	1.07
Cn1cccc1C(=O)C(=O)NC[C@@]1(C)CCCO1	-2%	0.28
OCc1ccc(-c2ncnn2-c2ccc3c(c2)CCC3)o1	-5%	0.48
O=C(C1CCCO1)N1CCCCC1c1nc2ccccc2o1 (centres undefined)	1%	-0.11
COc1ccc(C(NS(=O)(=O)N2CCC(C)CC2)[C@H]2C[C@@H](O)C2)cn1 (some centres undefined)	-2%	0.2
COCC1(NC(=O)CCS(C)(=O)=O)CCCC1	-10%	1.24
COc1cc2c(cc1OC)CC(=O)N(CC(=O)Nc1cc(F)c(F)c(F)c1)C=C2	-3%	0.3
O=C(O)c1ccc(-n2ccnc2-c2ccc(O)cc2)c(F)c1	0%	0.06
C=Cc1cccc(-c2cn(CC3(O)CCCCC3)nn2)c1	-13%	1.43
O=C1CN(C(=O)CN2CCC[C@H]2c2ccc3c(c2)OCCCO3)c2ccccc2N1	-2%	0.46
CO[C@@]12CC[C@@H](NC(C)=O)C[C@@H]1N(C(=O)Cc1ccc(O)c(Cl)c1)CC2	-5%	0.63
CC1(O)CCN(C[C@@H](C(=O)OC(C)(C)C)c2ccccc2)CC1	-6%	1.22
CC(C)CCO[C@@H]1CCCC[C@H]1NC(=O)C1CCc2cnn(C)c2C1 (some centres undefined)	-15%	2.2
Cc1onc(C(=O)N2CCCCCCNC(=O)[C@@H]3CCCC[C@@H]32)c1Cn1cccn1	-7%	0.98
Cc1noc(C)c1CN(C)CN1C(=O)NC(C2CC2)(C2CC2)C1=O	-8%	1.13
CCC1(CC)CCCN(Cc2nnc(C)n2C)CC1	-10%	1.4
CC1=C(C(=O)NCCc2csc(-c3ncccn3)n2)OCCO1	1%	-0.23
